# Some of the results follow.
# Legend:
# Experiment in all cases: glycan array binding signal (z-score within array); higher = stronger binding
# Conditions in all cases: glycan notation: IUPAC condensed, linker removed
# [1] = biological target: Fuc(a1-2)[GalNAc(b1-3)]Gal
# Method in brief: (§1)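 Glycan array data were curated from 3228 arrays in the Consortium for Functional Glycomics database and kept only where the protein sequence was available. Glycan names were converted to IUPAC-condensed notation, and columns mapping to the same glycan were averaged. The binding signal is a within-array Z-score, averaged across arrays of the same protein sequence at different concentrations or buffers and across linkers. Negative Z-scores can be read as non-binding.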
# Fuc(a1-3)GlcNAc = biological target: Fuc(a1-3)GlcNAc
# Method in brief: as §1
# [2] = biological target: Fuc(a1-3)[Gal(b1-4)]Glc6S
# Method in brief: as §1
# [3] = biological target: Fuc(a1-3)[Gal(b1-4)]GlcNAc
# Method in brief: as §1
# [4] = biological target: Fuc(a1-3)[Gal(b1-4)]GlcNAc(b1-2)Man
# Method in brief: as §1
# [5] = biological target: Fuc(a1-3)[Gal(b1-4)]GlcNAc(b1-2)Man(a1-3)[Fuc(a1-3)[Gal(b1-4)]GlcNAc(b1-2)Man(a1-6)]Man(b1-4)GlcNAc(b1-4)GlcNAc
# Method in brief: as §1
# [6] = biological target: Fuc(a1-3)[Gal(b1-4)]GlcNAc(b1-2)Man(a1-3)[Fuc(a1-3)[Gal(b1-4)]GlcNAc(b1-2)Man(a1-6)]Man(b1-4)GlcNAc(b1-4)[Fuc(a1-6)]GlcNAc
# Method in brief: as §1
# [7] = biological target: Fuc(a1-3)[Gal(b1-4)]GlcNAc(b1-3)Gal(b1-3)[Fuc(a1-4)]GlcNAc
# Method in brief: as §1
# [8] = biological target: Fuc(a1-3)[Gal(b1-4)]GlcNAc(b1-3)Gal(b1-4)[Fuc(a1-3)]GlcNAc
# Method in brief: as §1
# [9] = biological target: Fuc(a1-3)[Gal(b1-4)]GlcNAc(b1-3)Gal(b1-4)[Fuc(a1-3)]GlcNAc(b1-3)Gal(b1-4)[Fuc(a1-3)]GlcNAc
# Method in brief: as §1
# [10] = biological target: Fuc(a1-3)[Gal(b1-4)]GlcNAc(b1-3)GalNAc
# Method in brief: as §1
# [11] = biological target: Fuc(a1-3)[Gal(b1-4)]GlcNAc(b1-6)GalNAc
# Method in brief: as §1
# [12] = biological target: Fuc(a1-3)[Gal(b1-4)]GlcNAc(b1-6)[Gal(b1-3)GlcNAc(b1-3)]Gal(b1-4)Glc
# Method in brief: as §1
# [13] = biological target: Fuc(a1-3)[Gal(b1-4)]GlcNAc6S
# Method in brief: as §1
# [14] = biological target: Fuc(a1-3)[Gal3S(b1-4)]Glc
# Method in brief: as §1
# [15] = biological target: Fuc(a1-3)[Gal3S(b1-4)]GlcNAc
# Method in brief: as §1
# [16] = biological target: Fuc(a1-3)[Gal3S(b1-4)]GlcNAc6S
# Method in brief: as §1
# [17] = biological target: Fuc(a1-3)[GalNAc(b1-4)]GlcNAc
# Method in brief: as §1
# [18] = biological target: Fuc(a1-3)[GalNAc(b1-4)]GlcNAc6S
# Method in brief: as §1
# Fuc(a1-4)GlcNAc = biological target: Fuc(a1-4)GlcNAc
# Method in brief: as §1
# Fuc(b1-3)GlcNAc = biological target: Fuc(b1-3)GlcNAc
# Method in brief: as §1
# Gal(a1-2)Gal = biological target: Gal(a1-2)Gal
# Method in brief: as §1
# Gal(a1-3)Gal = biological target: Gal(a1-3)Gal
# Method in brief: as §1
# Gal(a1-3)Gal(b1-3)GlcNAc = biological target: Gal(a1-3)Gal(b1-3)GlcNAc
# Method in brief: as §1
# [19] = biological target: Gal(a1-3)Gal(b1-3)GlcNAc(b1-2)Man
# Method in brief: as §1
# [20] = biological target: Gal(a1-3)Gal(b1-3)GlcNAc(b1-2)Man(a1-3)[Gal(a1-3)Gal(b1-3)GlcNAc(b1-2)Man(a1-6)]Man(b1-4)GlcNAc(b1-4)GlcNAc
# Method in brief: as §1
# [21] = biological target: Gal(a1-3)Gal(b1-3)GlcNAc(b1-3)GalNAc
# Method in brief: as §1
# [22] = biological target: Gal(a1-3)Gal(b1-3)GlcNAc(b1-6)GalNAc
# Method in brief: as §1
# [23] = biological target: Gal(a1-3)Gal(b1-3)[Fuc(a1-4)]GlcNAc(b1-2)Man(a1-3)[Gal(a1-3)Gal(b1-3)[Fuc(a1-4)]GlcNAc(b1-2)Man(a1-6)]Man(b1-4)GlcNAc(b1-4)GlcNAc
# Method in brief: as §1
# Gal(a1-3)Gal(b1-4)Glc = biological target: Gal(a1-3)Gal(b1-4)Glc
# Method in brief: as §1
# Gal(a1-3)Gal(b1-4)GlcNAc = biological target: Gal(a1-3)Gal(b1-4)GlcNAc
# Method in brief: as §1
# [24] = biological target: Gal(a1-3)Gal(b1-4)GlcNAc(b1-2)Man
# Method in brief: as §1
# [25] = biological target: Gal(a1-3)Gal(b1-4)GlcNAc(b1-2)Man(a1-3)[Gal(a1-3)Gal(b1-4)GlcNAc(b1-2)Man(a1-6)]Man(b1-4)GlcNAc(b1-4)GlcNAc
# Method in brief: as §1
# [26] = biological target: Gal(a1-3)Gal(b1-4)GlcNAc(b1-3)GalNAc
# Method in brief: as §1
# [27] = biological target: Gal(a1-3)Gal(b1-4)GlcNAc(b1-6)GalNAc
# Method in brief: as §1
# [28] = biological target: Gal(a1-3)Gal(b1-4)[Fuc(a1-3)]GlcNAc
# Method in brief: as §1
# [29] = biological target: Gal(a1-3)Gal(b1-4)[Fuc(a1-3)]GlcNAc(b1-2)Man(a1-3)[Gal(a1-3)Gal(b1-4)[Fuc(a1-3)]GlcNAc(b1-2)Man(a1-6)]Man(b1-4)GlcNAc(b1-4)GlcNAc
# Method in brief: as §1
# Gal(a1-3)GalNAc = biological target: Gal(a1-3)GalNAc
# Method in brief: as §1
# [30] = biological target: Gal(a1-3)[Gal(a1-4)]Gal(b1-4)GlcNAc
# Method in brief: as §1
# [31] = biological target: Gal(a1-4)Gal(b1-3)GlcNAc(b1-2)Man(a1-3)[Gal(a1-4)Gal(b1-3)GlcNAc(b1-2)Man(a1-6)]Man(b1-4)GlcNAc(b1-4)GlcNAc
# Method in brief: as §1
# Gal(a1-4)Gal(b1-4)Glc = biological target: Gal(a1-4)Gal(b1-4)Glc
# Method in brief: as §1
# Gal(a1-4)Gal(b1-4)GlcNAc = biological target: Gal(a1-4)Gal(b1-4)GlcNAc
# Method in brief: as §1
# [32] = biological target: Gal(a1-4)Gal(b1-4)GlcNAc(b1-2)Man(a1-3)[Gal(a1-4)Gal(b1-4)GlcNAc(b1-2)Man(a1-6)]Man(b1-4)GlcNAc(b1-4)GlcNAc
# Method in brief: as §1
# [33] = biological target: Gal(a1-4)Gal(b1-4)GlcNAc(b1-3)Gal(b1-4)Glc
# Method in brief: as §1
# Gal(a1-4)GlcNAc = biological target: Gal(a1-4)GlcNAc
# Method in brief: as §1
binder,measurement,setting,value
Banana lectin (Musa acuminata) (protein) MNGAIKVGAWGGNGGSAFDMGPAYRIISVKIFSGDVVDGVDVTFTYYGKTETRHYGGSGGTPHEIVLQEGEYLVGMAGEVANYHGAVVLGKLGFSTNKKAYGPFGNTGGTPFSLPIAAGKISGFFGRGGKFLDAIGVYLEPLEHHHHHH,glycan array binding signal (z-score),[1],-0.203
same,glycan array binding signal (z-score),Fuc(a1-3)GlcNAc,-0.214
same,glycan array binding signal (z-score),[2],-0.211
same,glycan array binding signal (z-score),[3],-0.202
same,glycan array binding signal (z-score),[4],-0.22
same,glycan array binding signal (z-score),[5],-0.201
same,glycan array binding signal (z-score),[6],-0.084
same,glycan array binding signal (z-score),[7],-0.185
same,glycan array binding signal (z-score),[8],-0.123
same,glycan array binding signal (z-score),[9],-0.237
same,glycan array binding signal (z-score),[10],-0.268
same,glycan array binding signal (z-score),[11],-0.216
same,glycan array binding signal (z-score),[12],-0.214
same,glycan array binding signal (z-score),[13],-0.204
same,glycan array binding signal (z-score),[14],-0.2
same,glycan array binding signal (z-score),[15],-0.198
same,glycan array binding signal (z-score),[16],-0.212
same,glycan array binding signal (z-score),[17],-0.132
same,glycan array binding signal (z-score),[18],-0.213
same,glycan array binding signal (z-score),Fuc(a1-4)GlcNAc,-0.17
same,glycan array binding signal (z-score),Fuc(b1-3)GlcNAc,-0.198
same,glycan array binding signal (z-score),Gal(a1-2)Gal,-0.228
same,glycan array binding signal (z-score),Gal(a1-3)Gal,-0.232
same,glycan array binding signal (z-score),Gal(a1-3)Gal(b1-3)GlcNAc,-0.227
same,glycan array binding signal (z-score),[19],-0.189
same,glycan array binding signal (z-score),[20],-0.19
same,glycan array binding signal (z-score),[21],-0.173
same,glycan array binding signal (z-score),[22],-0.189
same,glycan array binding signal (z-score),[23],0.245
same,glycan array binding signal (z-score),Gal(a1-3)Gal(b1-4)Glc,-0.198
same,glycan array binding signal (z-score),Gal(a1-3)Gal(b1-4)GlcNAc,-0.106
same,glycan array binding signal (z-score),[24],-0.191
same,glycan array binding signal (z-score),[25],0.067
same,glycan array binding signal (z-score),[26],-0.214
same,glycan array binding signal (z-score),[27],-0.196
same,glycan array binding signal (z-score),[28],-0.222
same,glycan array binding signal (z-score),[29],-0.175
same,glycan array binding signal (z-score),Gal(a1-3)GalNAc,-0.2
same,glycan array binding signal (z-score),[30],-0.211
same,glycan array binding signal (z-score),[31],0.413
same,glycan array binding signal (z-score),Gal(a1-4)Gal(b1-4)Glc,-0.195
same,glycan array binding signal (z-score),Gal(a1-4)Gal(b1-4)GlcNAc,-0.206
same,glycan array binding signal (z-score),[32],-0.174
same,glycan array binding signal (z-score),[33],-0.223
same,glycan array binding signal (z-score),Gal(a1-4)GlcNAc,-0.208

# From the supplement of paper PMC8728848
